The values below come from the RNAGym collection of RNA variant scans (doi:10.1093/nar/gkz1192).

The source gives no read counts; variants with many changes may rest on few reads.

Sequences and labels used below:
B1: CPEB3 Ribozyme (parent)
chain: UAACAGGGGGCCACAGCAGAAGCGUUCACGUCGCAGCCCCUGUCAGAUUCUGGUGAAUCUGCGAAUUCUGCUGUAUAUCUC

In this data set the parent is B1. Put plainly: self-cleavage, relative activity (ratio to wild type); higher = more cleavage; in vitro, sequencing. The gist of the method: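 Barcoded CPEB3 ribozyme mutants, produced by rounds of error-prone PCR, self-cleaved while being transcribed with T7 RNA polymerase for 5 hours at 37°C and during a subsequent 15 min DNase I step before EDTA was added. Sequencing of template-switched cDNA on Illumina gave cleaved and total reads, and DNA sequencing assigned barcodes to variants. Each variant's relative activity is its cleaved/total read fraction divided by the unmutated ribozyme's fraction, averaged across three batches. A variant needed a minimum of 5 reads.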
Turning to A45C U51C U67A U74C, the self-cleavage is 0.43. Consider A45G U48C U67C, for which the self-cleavage is 0.25. With A45G A47G G53A U80G the figure was 0.94; with U43C U51C U72A, 0.27. With A45G A65G U76C the figure was 0.34; with A45G A47G G73A, 1.24. For A45G A56G U58C, the self-cleavage was 0.52.

Consider U43C U60A C62U U78A, for which the self-cleavage amounted to 0.03.

For the variant A45C G53C A64U, the self-cleavage stood at 0.19. U43C U58A U72C: the self-cleavage was found to be 0.16. With U43C U69A U72C the figure was 0.19; with C44G U48C A64G U72C, 0.05; with A45C U54A A65G, 0.16.

On to C44G A45U U51A G55A G70A, for which the self-cleavage was 0.19. With A45G A57G A64G the figure was 0.59. In the case of U43C U60C A64G U67C U69C U80C it was 0.21; in that of A45G U51C A77G, 0.68; in that of C44A U58C U69A U74C, 0.19. With C44A A45G U54C C62G the figure was 0.15; with A45G U51A A56C U60A, 0.21; with U43C U49G A57G C71A U80C, 0.1. Consider U43C U60C U67A, for which the self-cleavage was 0.09.

As for A45G U51C U69C U74C, the self-cleavage turned out to be 0.38. With A45G A47G U58G C62U the figure was 0.13. With A45G A57U U76C the figure was 0.53; with U43C U49C A65G, 0.18; with C44A A56U U72A, 0.14. Consider C44A A64G U72A G73C A77U, for which the self-cleavage stood at 0.61. In the case of A45G A47U A57G it was 0.1. For the variant A45G U51C G70A U72A U76C, the self-cleavage was 0.22. With A45G U49C U58C A65G C81U the figure was 0.13; with A45G U49C U78C U80A, 0.11; with A45G U49A C50A U78A, 0.27. For the variant U43C U54A A65G, the self-cleavage was 0.33. With A45G A47G C62A U74C the figure was 0.21; with A45G A64G A77C, 0.62; with A45G A64U U72C U74C A75G C79A, 0.47. With A45G A47G U72C U80C the figure was 0.7; with A45G G46A U49C, 0.16; with U43C U51C U60C A64G U78C U80A, 0.09.

Regarding A45G A56G A75G, the self-cleavage turned out to be 0.38.

As to U43G U60C U72A, the self-cleavage turned out to be 0.48.

In the case of A45C A57G C62A A64G U69A A75G, the self-cleavage is 0.16. In the case of A45G U48C U60A U80A it was 0.05; in that of A45G A56G A64G, 0.38; in that of A45C A56G A75U, 0.21.

For the variant A45G U54A U60A U69C U72C, the self-cleavage was 0.26. With A45G G63A U69A the figure was 0.36; with A45G G63A U76C, 0.7; with U43C U51C A56U, 0.38. With U43C U48C U66C the figure was 0.16. Take A45C U60C A64U C79U: the self-cleavage is 0.05.

Consider U43C U49C U69C U80A, for which the self-cleavage came to 0.36. In the case of U43C U48C C81A it was 0.12; in that of U43C U48C C81U, 0.34.

A45G A56G A57G U58C: the self-cleavage is 0.2. For A45G U49C U51G U60A U74A C81A, the self-cleavage was found to be 0.23. With U43C U54A A56G A64G the figure was 0.16; with A45G U54C U67C, 0.23; with A45G U48C U72A, 0.21. In the case of U43C U72A A77U it was 0.67. In the case of U43C U51C U80A it was 1.06; in that of U43C U69A U76C, 0.36.

For A45G U54C U60C C62A, the self-cleavage was determined as 0.46. Take A45C A64G U72C U76C: the self-cleavage was determined as 0.39. As for U43C U69A A77G, the self-cleavage stood at 0.33.

On to U43C U51A A77G, for which the self-cleavage was determined as 0.49. In the case of U43C U58C A64G it was 0.09; in that of U43C U49A U78C, 0.14.

Turning to U43C U51C U54C, the self-cleavage was 0.57. In the case of A45G A56U C59U G63A A64C it was 0.02; in that of A45G U48C U80C, 0.28. With A45G U54C U72A U80C the figure was 1.06.

Take C44A G63A U78A: the self-cleavage amounted to 0.32.

U43C U51C A56C A57G: the self-cleavage came to 0.07. Regarding A45G U54A U60C U69C, the self-cleavage was found to be 0.63. With A45G G55A U72A U78A the figure was 0.22; with U43C U58G U60C, 0.1; with A45G U49C U51C U69A, 0.07. On to A45G U54G U76C, for which the self-cleavage turned out to be 0.56. In the case of A45C U58C A64U U76C it was 0.22; in that of U43C U49G A64U U76A, 0.09; in that of A45C A57G C62A A64G A75G, 0.17.

Consider U43C U48C U69A, for which the self-cleavage stood at 0.12. In the case of A45G A65G U74C A75G it was 0.39. In the case of C44U C68U U72C it was 0.46; in that of U43C U49C U66A, 0.48. In the case of C44A A45G U74C U78C it was 0.34; in that of C44G U54C U72C U76G, 0.3; in that of U43C U49C U66C U74A, 0.1. U43C U51A U66A U67C U69G: the self-cleavage stood at 0.14. With U43C U49A U76C the figure was 0.21. In the case of A45G U49C U67C, the self-cleavage was found to be 0.18. In the case of A45G U60A A65G it was 0.26; in that of A45G A56G U69A C79A, 0.28. In the case of A45G A56U A57U U72A it was 0.18.

Take A45C G52A U67A: the self-cleavage was 0.13. In the case of U43C U48C U72C it was 0.29; in that of A45G A56C U67C U80C, 0.14.

Consider U43C U51A A56G U72A, for which the self-cleavage was 0.19. In the case of U43C U51A A56G U72C it was 0.23.

A45G A64C U74C: the self-cleavage stood at 0.24. In the case of U43C U72G G73C it was 0.99; in that of A45G U49C U60A U72C, 0.1; in that of A45G A56U U60C C71G, 0.3. With U43C U60C U66C U72A the figure was 0.11. On to U43C U54A A64U U67A U72C, for which the self-cleavage worked out at 0.1. With A45C U54G A56G A57G G61C U80C the figure was 0.05. In the case of A45G A47G A56G it was 0.22. Consider C44U A45G U49G G55A, for which the self-cleavage was 0.1.

Consider U43C U58C U60A G73U U78C, for which the self-cleavage amounted to 0.09. In the case of A45G G55U A75G it was 0.7; in that of A45G U48C C62A U74C, 0.18; in that of A45G A56U U60C U76C, 0.82. Turning to A45C U51A U74C, the self-cleavage was found to be 0.44. With U43C U49C U60C U78C, the self-cleavage came out at 0.15.

With C44U A56U C62A, the self-cleavage stood at 0.42. With U43G U76C U80C the figure was 0.17.

Consider A45G A64G U74C A75G, for which the self-cleavage is 0.95. Take A45G U54C U60C: the self-cleavage was 1.19. Regarding C44U A45G A56G C71U, the self-cleavage was 0.07. With A45G G53U U60C the figure was 1.02.

Consider A45G A56G U67C, for which the self-cleavage came out at 0.36.

U43G U48C U49A A64G: the self-cleavage was found to be 0.12. With A45G A64U U69A the figure was 0.43; with A45C G53C A64G A65G, 0.06; with A45G C59U U72A, 0.15. In the case of A45C U48A C68G U72C it was 0.12; in that of U43C U51C A57G, 0.34; in that of U43C U51C A57U, 0.15. In the case of A45G G61A C62G U76C it was 0.13.

In the case of U43G A57G C68U A75G, the self-cleavage came to 0.06. With U43C U60A U67A the figure was 0.27; with A45G U51C A64U U80A, 0.26. Consider U43C U54A A57G U69C, for which the self-cleavage was determined as 0.17. In the case of C44U A47G U49A it was 0.12. With A45G A57G G61A A64G the figure was 0.45.

Regarding A45G U51A A77G, the self-cleavage was 0.7.

Consider U43C U66A U67C, for which the self-cleavage was 0.14. For the variant U43C U49C A56G G63A A64G U76C U80C, the self-cleavage turned out to be 0.27. With A45G A65G U66C the figure was 0.15; with U43C U49A A56G, 0.24.

A45G U48C U49C A64C A77G: the self-cleavage was determined as 0.07.

On to A45C U51C G63A, for which the self-cleavage turned out to be 0.24. In the case of U43C U60C A65U it was 0.15. With C44G U51C U66C the figure was 0.2; with U43G A57G A64U, 0.15. In the case of A45G A56G U66C U69A it was 0.3. For the variant A45G U58A U66C, the self-cleavage was 0.11. In the case of U43C U51C G63U, the self-cleavage came to 0.98. In the case of U43C U66C U76C, the self-cleavage was 0.63. With C44G U60A U78C the figure was 0.63; with C44U U58C U60C, 0.7. In the case of A45C U67C C81A it was 0.16; in that of A45G U49C G63A U69C U74C, 0.11; in that of U43C U51C U54C U58C, 0.14. With A45G U49C A65G the figure was 0.1; with U43G U54C G63A, 0.14.

With A45G U49C U54C U72C U74C, the self-cleavage came to 0.1. With U43C U49C U60A the figure was 0; with U43C U48C U58A, 0.09.

Turning to A45C U51C U60C, the self-cleavage came to 0.21. With A45G U58C U60G U80A the figure was 0.19; with U43G U58C U60A, 0.36; with C44A A64U U78A U80C, 0.26. In the case of U43C U60C A77G it was 0.3; in that of C44U U48C A65C, 0.07.
